Binding signal data for 23 sequences are collected here from article PMC7819943, “Rice protein-binding microarrays: a tool to detect cis-acting elements near promoter regions in rice”.

The list shows a part of the results.

The experiment has as its target T1, OsWOX13 (Oryza sativa, UniProt Q5QMM3 1-267).
T1 sequence: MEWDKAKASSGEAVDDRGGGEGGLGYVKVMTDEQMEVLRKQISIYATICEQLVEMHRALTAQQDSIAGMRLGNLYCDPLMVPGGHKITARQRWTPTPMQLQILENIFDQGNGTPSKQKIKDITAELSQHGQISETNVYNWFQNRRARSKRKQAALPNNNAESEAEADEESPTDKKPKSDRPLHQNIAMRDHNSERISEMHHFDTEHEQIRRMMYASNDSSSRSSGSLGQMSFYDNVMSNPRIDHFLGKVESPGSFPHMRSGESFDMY
The experiment is described as follows: protein-binding microarray (RPBM); PBS, 2% BSA, 51.3 ng/ul salmon testes DNA, 50 uM zinc acetate, 200 nM TF, 25 C, 1 h; high values mean tight binding. The conditions noted are these: protein: recombinant; tags: N-terminal polyhistidine and DsRed monomer fusion (pET32a); label: CyDye5-dUTP incorporated in the synthesized complementary strand; 3' TTTTT single-stranded linker to array surface; dsDNA, one strand shown. The method in brief: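 Polyhistidine-tagged DsRed fusions of transcription factors, joined at the N-terminus, were expressed in E. coli BL21-CodonPlus and isolated on Ni–NTA. They were incubated at 200 nM for 1 h at 25 °C on a custom Agilent array, double-stranded and BSA-blocked, in PBS with 2% BSA, salmon testes DNA and 50 µM zinc acetate. The binding signal is per-feature fluorescence intensity (arbitrary units) read on an Axon 4000B scanner after washing.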
For “TGTTGACTAATGCATGTTTCTCTCATCGATCTTATAGGTTCGGAGTCACCTAGTGCAG”, the binding signal was 4620 fluorescence intensity (a.u.). On to “CTTAATTGTTTAGATATTATGTTTCTTTTCATACTTTGCTCGGAGTCACCTAGTGCAG”, for which the binding signal is 44100 fluorescence intensity (a.u.). For “GAATTATTACTGATGAGATGGAAAATCAGAAAACGAAGAACGGAGTCACCTAGTGCAG”, the binding signal is 3740 fluorescence intensity (a.u.). Consider “TACTGATGAGCCACTGACGGGTGGGGCCAGTTGACTGACACGGAGTCACCTAGTGCAG”, for which the binding signal is 6930 fluorescence intensity (a.u.). The result for “CAAAATTGAACTTACTTGAACCTCACGACAGTTCAAACATCGGAGTCACCTAGTGCAG” reads 6410 fluorescence intensity (a.u.); that for “CTTAAAATTAACACATCATGTATACTAGCTAACTTAATAGCGGAGTCACCTAGTGCAG”, 12000 fluorescence intensity (a.u.); that for “ATTTATAATTAGATGAAACGTACTTTGGTACCATGAAACTCGGAGTCACCTAGTGCAG”, 15700 fluorescence intensity (a.u.).

“GTGACAAATAAAATATACGATGACTGCTTCGCCACTGGACCGGAGTCACCTAGTGCAG”: the binding signal is 3240 fluorescence intensity (a.u.). As to “TATCATATTGCTTGATTGCTGTGTAGCCTGTGTTTACCTTCGGAGTCACCTAGTGCAG”, the binding signal is 13300 fluorescence intensity (a.u.). The result for “CGAAGTTGATAGGCGACGAAGCCCACAGCCCACCTATTGGCGGAGTCACCTAGTGCAG” reads 5170 fluorescence intensity (a.u.). With “CCTAATTATCTCTCTCTCCCTACCACGTCGTCTTCTCTTCCGGAGTCACCTAGTGCAG”, the binding signal is 25200 fluorescence intensity (a.u.). For “GGTTAAATGACCATTTTATCCAAGTAACTTGTATAATAAGCGGAGTCACCTAGTGCAG”, the binding signal was 5900 fluorescence intensity (a.u.). On to “ATTTAATTTCTCCTTGGTCTTTGTGACAATAGTAATATGTCGGAGTCACCTAGTGCAG”, for which the binding signal was 9870 fluorescence intensity (a.u.). As for “AAATCAAATTAGACTGACATATTTTGATATTGGCTAAATCCGGAGTCACCTAGTGCAG”, the binding signal was 27900 fluorescence intensity (a.u.).

On to “AAACATAATTTTAAGGACTACCGGAAAGATAAGGAGGTCGCGGAGTCACCTAGTGCAG”, for which the binding signal was 4040 fluorescence intensity (a.u.).

For “GAAATATTGATAATTTTATAAACTACTGACCGTGGAATCGCGGAGTCACCTAGTGCAG”, the binding signal was 12200 fluorescence intensity (a.u.). With “GCTTGTCCTAATTTTAAGTCAAATTAATGTTGTGTTTACTCGGAGTCACCTAGTGCAG”, the binding signal was 8680 fluorescence intensity (a.u.). Consider “GAGATTGACACACAACCGATAAAATAATATGATTATAGAACGGAGTCACCTAGTGCAG”, for which the binding signal is 19500 fluorescence intensity (a.u.). As to “ATATATATAATTAGGATTGTTATATGCATAGGTTTGCATTCGGAGTCACCTAGTGCAG”, the binding signal was 18400 fluorescence intensity (a.u.).

For “CCACCTACAAATCAATCTTAATAAGTTCATAAGGTTCATACGGAGTCACCTAGTGCAG”, the binding signal is 3980 fluorescence intensity (a.u.). The result for “GCCAATGACTTGACAAGTTGACATTGTATGGTCAAAGCCCCGGAGTCACCTAGTGCAG” reads 5510 fluorescence intensity (a.u.). Under “TGTGGATTGAATCAGCTCAGAATTACTCCGCGGTGCCCCACGGAGTCACCTAGTGCAG” stands 14400 fluorescence intensity (a.u.); under “GCCCTGATTAACCATTCAAAAGTGGGCTATGTGGCCTTACCGGAGTCACCTAGTGCAG”, 23500 fluorescence intensity (a.u.).
